# Measurements: the supplement of paper PMC3334620
# Whole data set: some 33,000 sequences, median “E-score (-0.5 to 0.5)” near -0.012, cut for the highest 2% near 0.27. The list shows a part of the results.
# Target: T1, Vhr1 (UniProt P40522)
# T1 sequence: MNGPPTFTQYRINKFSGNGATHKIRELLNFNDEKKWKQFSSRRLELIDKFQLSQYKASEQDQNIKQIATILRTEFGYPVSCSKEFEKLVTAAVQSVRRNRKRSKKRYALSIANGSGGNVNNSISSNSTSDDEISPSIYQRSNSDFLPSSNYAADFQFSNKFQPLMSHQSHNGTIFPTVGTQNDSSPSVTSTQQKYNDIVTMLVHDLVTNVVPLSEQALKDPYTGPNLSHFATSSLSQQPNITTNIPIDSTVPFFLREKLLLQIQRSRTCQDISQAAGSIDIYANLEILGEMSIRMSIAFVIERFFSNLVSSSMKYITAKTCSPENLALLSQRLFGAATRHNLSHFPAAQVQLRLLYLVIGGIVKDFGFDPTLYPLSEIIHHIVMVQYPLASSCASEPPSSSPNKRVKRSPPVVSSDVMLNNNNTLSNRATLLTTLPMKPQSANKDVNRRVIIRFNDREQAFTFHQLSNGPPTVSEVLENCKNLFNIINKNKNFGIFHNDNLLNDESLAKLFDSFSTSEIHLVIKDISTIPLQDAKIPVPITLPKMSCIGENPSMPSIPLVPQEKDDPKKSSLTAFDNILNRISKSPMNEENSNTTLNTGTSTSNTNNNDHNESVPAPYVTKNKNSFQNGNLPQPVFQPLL
# Experiment: PBM E-score (8-mer binding enrichment) (E-score (-0.5 to 0.5)); higher = stronger / more preferred TF binding; most listed sequences are background and not binding sites
# Settings: protein concentration: 200 nM; construct: GST-full length
# In short: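 Universal all-10-mer Agilent arrays, fresh or stripped once, were converted to double-stranded form by primer extension. GST-tagged yeast transcription factors from PURExpress in vitro transcription/translation, full-length or DNA-binding domain only, were applied at about 100-200 nM and detected with fluorescent anti-GST. After masliner normalisation, the Universal PBM Analysis Suite scored each ungapped eight-base word together with its reverse complement by E-score.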
row,Sequence,PBM E-score
1,GGTCGTAC,0.0468
2,TATTAAAA,0.129
3,GAAGACTC,0.229
4,AAAAGATG,-0.0941
5,CAGAACCA,-0.0201
6,CCGAGATC,0.0839
7,GATCGTAA,-0.174
8,AACGCGAT,-0.121
9,ATTAGAAT,0.0307
10,CGCCAGAG,-0.0444
11,CTGCAAAA,-0.203
12,ACGCATTG,-0.113
13,ATTACAGC,-0.00665
14,GACGTCGC,-0.0779
15,CATGGGCC,0.102
16,CCCAACTC,0.134
17,CAAGGTTC,-0.238
18,AAAACCTT,-0.177
19,GACAAGAA,-0.153
20,CACCTGCC,0.129
21,AGATGTAT,0.133
22,ACAGAATC,-0.00235

row,Sequence,PBM E-score
1,ACCTGGTG,0.165
2,AAAGGAGT,0.0366
3,GGTCCAAC,-0.0911
4,AATCGCGG,0.0545
5,GACTGAAC,0.0799
6,CGTCAGGA,-0.0893
7,GATGTACA,0.17
8,TAACTCGA,0.114
9,AACTTGTC,-0.19
10,CAGTAGCG,0.146
11,CTAGGTAA,0.0578
12,ACCGCTAG,-0.061
13,AAACGAGG,-0.161
14,ACACGTGA,0.00293
15,TATATTAA,0.243
16,ACTGCGAC,0.209
17,ACTGTTAA,0.0716
18,CTCTAGAG,-0.265
19,AATCTGCG,0.09
20,AACAGTAA,0.143
21,ACTAGAGT,0.0036
22,CCCTTTAC,-0.146

row,Sequence,PBM E-score
1,AAAAAGTA,0.00228
2,ACAGCTCT,-0.114
3,ATCGAGGC,-0.154
4,ACGCCCGC,-0.0159
5,AACTTTCG,-0.349
6,GATGACAC,0.157
7,CAACGATG,0.0466
8,AATGGATA,0.0689
9,AGGAAAAG,-0.147
10,GTCTGTCA,-0.0786
11,CCCTCTGA,0.0375
12,CATCGTCA,0.192
13,GTGGGCCA,-0.106
14,GTTCAGCA,-0.00052
15,CTAAACGC,-0.171
16,GCATGGGC,-0.0393
17,TACCACCA,0.083
18,ATTTCTGA,-0.152
19,AAGCCCCC,-0.408
20,GGCCTGCA,-0.165
21,ATACTTAG,-0.0208
22,AGTTTTCG,-0.106

row,Sequence,PBM E-score
1,GGGGCAAC,-0.123
2,CCCTCATA,-0.0983
3,TGCTCGAA,-0.0601
4,CCCTAAAC,-0.183
5,ATAGAATG,0.056
6,CGCGAGCA,0.00371
7,GTTTCTGA,0.0708
8,AGACTAAC,0.0491
9,ACCGTAAC,-0.0106
10,AACCAGAT,0.172
11,GGGAGTTA,-0.144
12,CGGACCAA,0.0443
13,CGGGTCTC,0.148
14,AGTGGTGG,0.097
15,GAGCTGTA,-0.229
16,CCCTGTTA,0.0326
17,GGCGGCAC,0.134
18,CATGTGCG,0.0753
19,AAATAAAT,-0.133
20,CGTCACTC,-0.0595
21,TCACGCAA,0.0179
22,AGGGGCTA,-0.0328

row,Sequence,PBM E-score
1,CGTGCCAA,-0.065
2,ATTGTAAA,-0.0424
3,ATTCAACG,0.015
4,ACCTATAC,0.116
5,ATGGACTC,0.191
6,TATAGATA,-0.117
7,CTGGGTCA,0.11
8,AATGTGGT,0.115
9,CGGACTCA,0.381
10,TAACAAGA,-0.253
11,AATAACCC,0.0809
12,GGACTCCC,0.0918
13,AAATACAG,-0.0233
14,GATATGAC,0.197
15,ACCTTCCA,-0.17
16,AGGGCTTA,-0.268
17,ACGACCTA,0.143
18,ATGCAGTG,0.276
19,AATTCGCT,0.133
20,AGCGTGAG,0.0864
21,ATACTCAA,0.178
22,CTCCAACA,0.126
